Test results reported in PMC4336329 (PLoS ONE, 2015).
The whole screen tested about 310,000 compounds, of which about 14,000 (4.5%) showed an effect of 50% or more. Effects have a minus sign here. The list shows a part of the results.

target: human ether-à-go-go-related gene (hERG) potassium channel (human, UniProt Q12809); assay: primary screen, population patch clamp on CHO cells stably expressing hERG
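Further: peak tail current of the secondary pulse compared with the same well before compound.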

Chain of human ether-à-go-go-related gene (hERG) potassium channel (Q12809 whole entry, looked up): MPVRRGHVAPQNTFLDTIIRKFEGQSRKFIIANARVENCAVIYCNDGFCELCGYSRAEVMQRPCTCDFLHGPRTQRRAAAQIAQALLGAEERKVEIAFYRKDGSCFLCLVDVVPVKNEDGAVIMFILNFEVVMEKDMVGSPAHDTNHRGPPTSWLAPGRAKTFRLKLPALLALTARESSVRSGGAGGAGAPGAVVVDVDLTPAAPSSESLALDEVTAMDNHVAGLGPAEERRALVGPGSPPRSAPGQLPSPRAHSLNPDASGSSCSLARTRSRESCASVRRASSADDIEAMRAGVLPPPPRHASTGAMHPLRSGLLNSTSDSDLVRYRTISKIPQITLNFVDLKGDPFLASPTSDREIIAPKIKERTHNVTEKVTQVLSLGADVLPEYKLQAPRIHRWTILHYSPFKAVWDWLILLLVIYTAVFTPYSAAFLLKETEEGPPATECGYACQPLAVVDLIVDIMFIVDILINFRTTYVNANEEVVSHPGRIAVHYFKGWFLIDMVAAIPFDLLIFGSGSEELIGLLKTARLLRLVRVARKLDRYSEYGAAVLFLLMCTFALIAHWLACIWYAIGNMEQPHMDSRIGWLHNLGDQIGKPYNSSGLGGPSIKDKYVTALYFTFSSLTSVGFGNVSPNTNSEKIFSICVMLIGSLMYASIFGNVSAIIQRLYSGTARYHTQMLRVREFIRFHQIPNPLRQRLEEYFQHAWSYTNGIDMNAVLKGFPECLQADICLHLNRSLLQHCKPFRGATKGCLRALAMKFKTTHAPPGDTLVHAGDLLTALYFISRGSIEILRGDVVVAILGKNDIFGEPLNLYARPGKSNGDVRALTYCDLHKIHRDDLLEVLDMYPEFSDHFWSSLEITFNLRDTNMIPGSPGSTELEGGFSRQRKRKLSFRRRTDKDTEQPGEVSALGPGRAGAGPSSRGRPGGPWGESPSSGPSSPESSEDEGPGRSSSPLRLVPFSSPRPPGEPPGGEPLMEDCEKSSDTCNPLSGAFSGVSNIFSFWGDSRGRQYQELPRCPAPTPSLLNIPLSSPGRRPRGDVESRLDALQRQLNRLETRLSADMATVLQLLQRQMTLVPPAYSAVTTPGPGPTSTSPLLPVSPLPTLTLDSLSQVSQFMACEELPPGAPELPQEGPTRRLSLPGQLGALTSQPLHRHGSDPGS

| Compound | hERG current change (%, negative = inhibition) at 10uM [%] |
| --- | --- |
| O=C(NCc1ccccc1Cl)C(=O)NCC(c1ccco1)N1CCOCC1 (stereo not drawn) | -8.45 |
| Cc1ccccc1OCc1nnc(SCC(=O)NCc2ccco2)n1C | -2.56 |
| CCCCOC(=O)NCN1C(=O)C2C3C=CC(C3)C2C1=O (stereo not drawn) | -5.04 |
| CCN(CC)c1ccc(C=Nc2cc(C)cc(C)c2)c(O)c1 | 21.8 |
| O=C(CN1CCN(c2ccccn2)CC1)Nc1ccc([N+](=O)[O-])cc1C(=O)Nc1ccccc1F | -34.7 |
| Cc1nc(NC(=O)CCC(=O)O)sc1C(=O)N(C)C | 23.2 |
| COc1cc(OC)cc(C(=O)NCC(=O)OCc2ccc(Cl)c(Cl)c2)c1 | -8.82 |
| CCOC(=O)C1(CCCc2ccccc2)CCN(C(=O)C2CCCN(C(N)=O)C2)CC1 (stereo not drawn) | -72.4 |
| COc1ccc(-c2ccccc2NC(=O)C2CCCN(Cc3ccco3)C2)cc1 (stereo not drawn) | -46.3 |
| CCOc1ccc(NC(=O)CCN2CCN(c3ccccc3)CC2)cc1 | -33 |
| CC(C)N1CCC(=NNC(=O)c2ccccc2[N+](=O)[O-])CC1 | -4.84 |
| CC(C)Cc1nnc(NC(=O)Nc2ccccc2)s1 | 39 |
| CCC(C(=O)NCc1ccco1)N(C(=O)CNS(=O)(=O)c1ccc(F)cc1)c1ccccc1F (stereo not drawn) | -5.69 |
| Cc1nc(SC(C(=O)c2ccccc2)c2ccccc2)n[nH]1 (stereo not drawn) | 12.8 |
| Cc1sc2nc(C)n(/N=C/c3ccccc3O)c(=O)c2c1C | -7.37 |
| COc1ccc(CNC(=O)CSc2nc3ccc(OC)cc3[nH]2)cc1 | -2.87 |
| COC(=O)c1c(C)[nH]c(C(=O)C(Cc2ccccc2)N(C)C)c1C (stereo not drawn) | -17.4 |
| CN1CCc2c(sc3c2C(=O)NC(c2ccccn2)N3)C1 (stereo not drawn) | -1.35 |
| CCc1c(C)nc2cc(-c3cc(OC)cc(OC)c3)nn2c1N1CCCC1 | -2.11 |

| Compound | hERG current change (%, negative = inhibition) at 10uM [%] |
| --- | --- |
| CC1C(c2ccccc2)N(C)C(c2ccccc2)CC1(O)c1ccc(F)cc1 (stereo not drawn) | 4.48 |
| COC(=O)c1ccc(NC(=O)C(=O)c2c[nH]c3ccccc23)cc1 | 9.8 |
| O=C(CN(C1CCCCC1)S(=O)(=O)c1ccc(F)cc1)NCc1ccncc1 | -41.9 |
| COc1ccc(S(=O)(=O)N2CCCCC2)cc1NC(=O)c1ccc([N+](=O)[O-])o1 | -2.81 |
| O=C(O)COc1ccccc1/C=N/NC(=O)C(O)c1ccccc1 (stereo not drawn) | 10.4 |
| CCOc1ccc(NC(=O)Cc2ccc(NC3=NC4CS(=O)(=O)CC4S3)cc2)cc1 (stereo not drawn) | 4.87 |
| CCC(=O)N1CCc2cc(Br)cc(S(=O)(=O)NCCN3CCCCC3CC)c21 (stereo not drawn) | -20.4 |
| Cc1ccc(C(=O)c2c[nH]cc2-c2ccccc2)cc1 | -5.45 |
| CCc1nc(N2CCN(C(=S)NCCCOC)CC2)c2c3c(sc2n1)CCCC3 | -9.32 |
| N#C/C(=N\Nc1ccc(F)cc1)C(=N)N1CCCCCC1 | 10 |
| COc1ccc(N(CC(=O)NCCSC2CCCCC2)S(=O)(=O)c2ccccc2)c(OC)c1 | 4.16 |
| O=C(CSc1ccccc1)N1CCCC(Nc2ccccc2)C1 (stereo not drawn) | -0.302 |
| COc1cccc(O)c1CN1CCCC(C(=O)c2cccc(C(F)(F)F)c2)C1 (stereo not drawn) | -57.5 |
| CCOc1ccc(C(=O)NC(C(=O)NCc2ccccc2OC)C(C)C)cc1 (stereo not drawn) | 17.5 |
| c1ccc(Cc2nn[nH]n2)cc1 | -8.71 |
| O=C(CCC1CCCC1)NCCS(=O)(=O)N1CCN(c2ccc(F)cc2)CC1 | -39.2 |
| Cc1ccc(CCNC(=O)C2CCN(S(=O)(=O)c3cccc4cccnc34)CC2)cc1 | -18.4 |
| O=C(Nc1cccc(S(=O)(=O)N2CCCC2)c1)c1cccc(OC(F)F)c1 | -56.4 |
| O=C(c1ccccc1Br)N1CCc2c([nH]c3ccccc23)C1 | 12.3 |

| Compound | hERG current change (%, negative = inhibition) at 10uM [%] |
| --- | --- |
| Cc1csc(NC(=O)c2ccc(Cl)cc2[N+](=O)[O-])n1 | -64.8 |
| CCN1C(Nc2ccccc2)=NC[C@@H]1C | 15.2 |
| Cc1ccc(S(=O)(=O)NC(=O)COc2ccccc2C)c(C)c1 | -21.9 |
| COc1ccc(NC(=O)c2ccc3nc[nH]c3c2)c(OC)c1 | -5.16 |
| COc1ccc(C2=NOC3(CC(=O)N(c4ccc(Cl)cc4)C3=O)C2)c(OC)c1 (stereo not drawn) | -11.7 |
| C/C(=N\NS(=O)(=O)c1c(C)cc(C)cc1C)c1ccncc1 | -0.546 |
| CC1CCC(NC(=O)CN2C(=O)NC3(CCCCCC3)C2=O)CC1 (stereo not drawn) | -19.8 |
| Oc1ccc(C2C(c3ccccc3)=NN=C(c3ccc(Cl)cc3)N2O)c(O)c1 (stereo not drawn) | -3.57 |
| COc1ccc2cc(C3(C)NC(=O)NC3=O)ccc2c1 (stereo not drawn) | -0.239 |
| CC12CCC3C(CCC4N(CCO)CCC34C)C1CCC2O.Cl (stereo not drawn) | 18.3 |
| CN1CC=C(c2c[nH]c3ccccc23)CC1 | -10.4 |
| OCC1(Cc2ccccc2)CCN(Cc2ccc(C(F)(F)F)cc2)CC1 | -72.9 |
| O=C(c1cc(Br)c(Br)s1)N1CCOCC1 | 5.13 |
| Cc1ccc(/C=C/C(=O)NC2CCS(=O)(=O)C2)cc1 (stereo not drawn) | 20.6 |
| Cn1ncc(Br)c1C(=O)Nc1c(F)c(F)cc(F)c1F | 4.18 |
| Cc1ccc(C(=O)C2(C)C3c4cc(Br)ccc4OC(=O)C32C(=O)c2ccco2)cc1 (stereo not drawn) | 15.8 |
| COc1ccccc1N(CC(O)CN1C(=O)NC(C)(C)C1=O)S(=O)(=O)c1ccc(C)cc1 (stereo not drawn) | -6.48 |
| CCc1ccc(NC(=O)C2CCCN(S(=O)(=O)c3ccc4c(c3)CCCN4C(C)=O)C2)cc1 (stereo not drawn) | -2.68 |
| COCCNC(=O)Cn1nc(-c2ccccc2)c2ccccc2c1=O | 0.883 |
